Source: the supplement of paper PMC3334620
Over roughly 33,000 sequences, “E-score (-0.5 to 0.5)” has its median near -0.012; the highest 2% begin near 0.29. This is one part of the list.

target: T1, Ybr033w (UniProt P38073); assay: PBM E-score (8-mer binding enrichment) (E-score (-0.5 to 0.5)); higher = stronger / more preferred TF binding; most listed sequences are background and not binding sites; settings: protein concentration: 200 nM; construct: GST-full length
T1 sequence: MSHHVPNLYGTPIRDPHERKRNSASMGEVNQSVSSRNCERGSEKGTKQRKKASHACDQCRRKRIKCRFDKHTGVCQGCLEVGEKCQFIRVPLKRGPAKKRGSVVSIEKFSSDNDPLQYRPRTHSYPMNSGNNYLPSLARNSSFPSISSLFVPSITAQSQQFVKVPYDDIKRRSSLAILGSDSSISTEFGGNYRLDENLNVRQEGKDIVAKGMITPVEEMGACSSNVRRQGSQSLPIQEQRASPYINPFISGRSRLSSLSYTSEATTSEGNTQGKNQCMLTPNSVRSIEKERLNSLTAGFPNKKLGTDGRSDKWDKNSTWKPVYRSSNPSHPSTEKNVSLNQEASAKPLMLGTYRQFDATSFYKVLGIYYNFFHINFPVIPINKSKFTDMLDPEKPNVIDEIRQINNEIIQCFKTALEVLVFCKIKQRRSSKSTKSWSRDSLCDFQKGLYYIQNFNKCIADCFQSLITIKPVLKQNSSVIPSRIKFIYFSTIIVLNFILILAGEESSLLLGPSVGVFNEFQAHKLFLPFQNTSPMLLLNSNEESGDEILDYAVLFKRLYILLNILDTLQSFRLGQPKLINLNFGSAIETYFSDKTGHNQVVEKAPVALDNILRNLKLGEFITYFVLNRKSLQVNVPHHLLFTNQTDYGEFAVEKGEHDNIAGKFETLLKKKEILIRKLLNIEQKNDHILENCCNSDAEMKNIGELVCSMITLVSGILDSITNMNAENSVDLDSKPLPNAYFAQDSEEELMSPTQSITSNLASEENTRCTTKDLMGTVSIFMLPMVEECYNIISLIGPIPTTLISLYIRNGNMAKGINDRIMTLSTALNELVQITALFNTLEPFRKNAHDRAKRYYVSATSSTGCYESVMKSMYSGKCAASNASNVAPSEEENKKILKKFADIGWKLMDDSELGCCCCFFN
Summary of the method: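 Universal all-10-mer Agilent arrays, double-stranded by primer extension on fresh or once-stripped slides, were probed with about 100-200 nM GST-tagged yeast transcription factors made by PURExpress. Fluorescent anti-GST detected bound protein, and masliner normalised the scans. E-scores from the Universal PBM Analysis Suite were given to each ungapped eight-base word pooled with its reverse complement.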

Sequence	PBM E-score
ACCCCGAG	-0.201
CGGGAACG	-0.176
GGAGCGGA	-0.102
AGGCCTGC	-0.154
AGTCCTCG	-0.173
ACCATTGG	0.0393
ACTCCCTC	-0.264
ACTGACGG	-0.0255
GACGCATA	0.0181
CCAGAGCG	-0.22
ACGTCTAC	-0.0619
AAATCCCC	-0.137
ATGCTCGC	-0.00437
AGCCTGAA	-0.0308
CTAACTAA	0.196
AACTTGGC	0.119
GTGGGCAA	-0.0794
AAGTCGCC	-0.246
CAGGCAAA	0.0423
ATCGGAAC	0.0632
ACCCCACG	-0.301
CCTGGACC	-0.203
GCGCTAAC	0.00302
ATGCTAAC	0.0627
ACTCCGAC	-0.0833

Sequence	PBM E-score
AGACCGCT	-0.221
CCACCTAA	0.0562
CATAACAA	0.226
ACGGGTGG	-0.171
CTCAGAAG	-0.208
AAAATTGC	0.069
CAACTTGC	-0.0839
GTGGGAGA	-0.234
CGACCGAG	-0.062
ATGGTTCC	0.135
CAATGGTG	-0.283
CATCGAGA	0.0222
AAAATGTC	0.177
CGCGCACA	-0.014
AGCTCTGG	-0.197
GTTTCAGA	0.0593
GACGTACA	0.00296
AGAGAGTC	0.00587
AGCGAGCC	-0.124
ACCCAAGA	-0.128
CCGTCGGC	-0.215
ATAGTAAA	0.277
TGATCAAA	0.076
CAACCCGG	-0.227
GAAATAGC	0.0527

Sequence	PBM E-score
CTGCGGCA	-0.196
CGTTACCC	-0.353
CCAGTCAC	-0.176
AACCGCCA	-0.112
CCGGCCGA	-0.205
CCATAGCC	-0.181
CAGCCCCG	-0.216
TAGCGTCA	0.0632
ATCGGCAT	-0.0727
CACTCTTC	0.00135
GTTAATGA	0.12
CACGCAGG	0.0693
AAGACATC	-0.0802
CGACAGCC	-0.0237
ACCCTCAC	-0.289
AAACCAGG	-0.0313
ATAGCTGA	-0.196
GATTTCCA	0.0676
AAGCTAGA	-0.0214
CGCACCTC	-0.198
GGAAGATA	0.274
CAGTTGCA	0.0331
GTAGCAAA	0.238
CATGTTAC	-0.0517
CACCCCAG	0.0316

Sequence	PBM E-score
AGGTTGGG	-0.0909
AATCCACA	0.195
CCGTCAAC	-0.0408
AGTATGAC	0.0908
AATATCCA	0.203
TCACCCCA	0.0736
GCGATGAC	-0.171
GAGTGGAC	-0.0216
CCGTGATA	-0.0818
AAAATGTG	0.0163
ATATAGAT	0.286
GTCGTGTA	0.103
AACCCACG	-0.227
GCGCTACA	-0.144
AAATTCCC	0.0364
AATGGCGT	-0.116
AAATGTCC	-0.185
GGGGGATA	-0.293
AAGGCACG	-0.0392
AAGTAAGA	0.0371
GACAGGAC	0.022
ACTCATCG	-0.0961
GGCCAGGA	-0.14
CGTGTCCC	-0.313
CATAAATG	-0.0505

Sequence	PBM E-score
AACTTACA	0.13
GCTAACGA	-0.00288
ACACCCAT	0.0255
CATCTTTC	0.108
GTAGCCTA	-0.188
CGACATTA	0.229
CGTAAAAC	-0.0532
GCATTGAA	0.0889
GTAGCGAC	-0.0936
AGGTAGTC	-0.165
GGCCTAGA	-0.105
AGCCAGAC	-0.0118
ACTCTGAC	-0.212
GGTCCATA	-0.121
ATCCTGGA	0.0928
ATGATTTC	0.162
GTGAAACA	0.0868
CCCCCAGG	-0.273
AGAGACAA	-0.0571
TGAGCTAA	0.0551
CAAACTCC	0.22
GATAGGCA	0.03
GGAGCTAA	-0.0436
AACATGGT	0.0162
TATGAAAA	0.225

Sequence	PBM E-score
GAACTGGA	0.142
ATGGTCAG	0.161
CGCGTGAA	-0.0731
AGGATTAA	0.361
GGACGCCA	-0.319
CATAGGGG	-0.211
GCCGACCA	-0.254
AGACTACT	0.171
ACAAATGA	0.0836
AGGTAAGG	-0.119
CGAGCCGC	0.105
ATCCTAAC	0.142
CTTAGCGA	0.0522
GCGTTGCC	-0.188
AGCGCCTG	-0.135
ACTTACAC	-0.0235
GACCATTA	0.2
AATGAGTC	-0.0703
CAATGTCG	0.0113
AACAAGCG	0.178
CCTTACAC	-0.00654
TACACAGA	0.116
TACCGAAA	0.0108
AAGAAGCT	0.0712
ATGCTTAG	0.131

Sequence	PBM E-score
AGAGCTGA	0.0192
AGAGATTG	0.125
AGTCGGCA	-0.0305
GCGCAGCC	-0.249
AGGCGGAG	-0.0377
AAGCTCGG	0.0182
CAATATTA	0.27
CTCCTAAA	-0.0494
TAGGAAAA	0.229
ACCGCTTA	-0.0969
GACTTGAC	-0.108
CCCTGTCC	-0.267
AATGAAGC	-0.0361
CCGTCTTA	-0.166
CGAATGTA	-0.0524
AATCGCTG	-0.0821
ATGTAATC	0.112
AATCCCCC	-0.366
GCGGCAAA	-0.0322
CTGCAAAC	0.0506
CGCCATTA	-0.0782
CAGCAAGA	0.0995
TCTACAAA	0.0828
ACTTGAGA	0.158
AATGTAGT	0.189

Sequence	PBM E-score
AATCTTAT	0.216
AACATGTA	0.269
ATCAATTA	0.365
AGCAATAC	0.0784
ACTTTCCG	0.0609
AGGTGGCG	-0.157
ACCTTGGG	-0.04
TGTGTGAA	0.0316
GAGCCGGC	-0.0356
TCATGAAA	0.00693
AGTTTATG	0.2
ATGTGTCG	-0.0937
CAGTTCGG	-0.0492
CTAAGATA	0.0878
CACCTCTC	-0.283
CGTGAGCC	-0.176
GTTTTCGA	0.025
GGGGTGGA	-0.234
AACGAAAG	0.113
CACAAATC	0.113
CATTGGTC	-0.109
AAAGTTCC	0.132
AAGTCCCA	-0.154
AATATTCA	0.226
CAACAGTA	0.0739

Sequence	PBM E-score
CTGAGTGA	0.131
AGTAGATC	0.164
GGGGCTCA	-0.219
ACCGACAA	0.0577
AAAAAGCG	0.112
GCTGTCGA	-0.0632
AAAGAAAT	0.25
CCCTATCC	-0.24
CACTTACA	0.0826
CACTGCTG	-0.111
CATTTGAG	-0.015
ATTCCCCG	-0.0486
AATTTCAT	0.224
CGGGACCA	-0.215
CTCGGGTA	-0.109
ACAGGTCA	-0.0986
AAGACCTA	-0.122
ACAGCGCC	-0.159
AATACGGG	-0.102
